The structures appear in SMILES notation. Out of some 50,000 compounds screened, about 800 (1.6%) showed an effect of 50% or more. This is one part of the list.

This test concerns the target Bcl-2-like protein 10 (Homo sapiens) (UniProt Q9HD36). The experiment in a line: TR3 peptide-Bcl-B binding displacers, biochemical primary FP assay, phenotype converters (AID 1240).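 Note: 0% = Bcl-B with tracer peptide and DMSO and 100% = tracer peptide lacking Bcl-B.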 As to conditions: GST-Bcl-B / FITC-TR3 peptide fluorescence polarization; stronger effect = higher value; compound at 3.75 mg/L. (In general: In fluorescence polarisation assays a small probe gives low polarisation when free and higher when bound to something large.)
Sequence of UniProt Q9HD36 (Q9HD36 whole entry, looked up): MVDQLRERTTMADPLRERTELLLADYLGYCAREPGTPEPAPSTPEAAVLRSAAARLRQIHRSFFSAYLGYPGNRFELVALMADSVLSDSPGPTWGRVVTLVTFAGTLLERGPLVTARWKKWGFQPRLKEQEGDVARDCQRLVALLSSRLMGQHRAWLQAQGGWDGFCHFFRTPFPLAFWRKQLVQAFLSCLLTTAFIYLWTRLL
`COc1ccc(C/C(N)=N/OC(=O)COc2ccc3ccccc3c2)cc1`: the displacement worked out at 12.3%.
Under `CN(C)c1ccc(/C=C2\C(=O)NC(=S)N(c3ccc(Br)cc3)C2=O)cc1` stands 12.1%; under `CCOc1cc(C=C2C(=O)NC(=O)NC2=O)ccc1OCc1cccc2ccccc12`, 58.6%; under `COC(=O)c1cc(NC(=O)COc2ccc(Br)cc2)cc(C(=O)OC)c1`, 4.3%.
Under `O=C(Nc1ccc(O)cc1C(=O)O)c1ccc(Cl)c(Cl)c1` stands 5.1%; under `Cc1ccc(OCC(=O)Nc2sc3c(c2C#N)CCCC3)cc1C`, 6.2%; under `O=C(Nc1ccccc1)c1ccc(CN2CCN(Cc3ccccc3)CC2)cc1`, 2.9%.
The result for `Cc1ccc2c(c1)c1c(n2CN2CCCCC2)C(=O)CCC1` reads 6.7%; that for `O=C(c1ccc(N2CCN(C(=O)c3ccccc3F)CC2)cc1)c1cccc(F)c1`, -53.4%; that for `N/C(=N\N=C\c1c[nH]c2ccccc12)c1nonc1N`, 10.5%.
As for `O=C(Nc1ccc(-c2nc3ncccc3o2)cc1)c1ccc(-c2cccc(Cl)c2)o1`, the displacement was 14.3%.
As to `CS(=O)(=O)N(CC(=O)O)c1ccccc1Br`, the displacement turned out to be 12.6%.
The result for `COc1c(C2=CC(=O)N(C)C2=O)c2c(n1C)C(=O)c1ccccc1C2=O` reads 8.7%; that for `COc1ccc(C(=O)O/N=C(\N)Cc2ccc(Cl)cc2Cl)cc1`, -3.5%.
For the compound `COC(=O)c1sccc1NC(=O)c1sc2ccccc2c1Cl`, the displacement was -5.8%.
The result for `CCN(C)c1ccc(C=C2C(=O)NC(=O)NC2=O)cc1` reads 10.1%; that for `CN(C)c1ccc(CNC(=O)C(O)(c2ccc(F)cc2)c2ccc(F)cc2)cc1`, -1.3%.
The result for `CCOC(=O)c1sc(N/N=C/c2cccc(O)c2)nc1C` reads 0%; that for `CC(=O)Cc1cc(O)c2ccccc2c1OC(=O)c1ccccc1`, -8.9%; that for `CCOc1cc([N+](=O)[O-])cc(/C=C2\SC(=S)N(C)C2=O)c1O`, 1.9%.
Under `CN1C(=O)C(O)(CC(=O)c2ccc(F)cc2)c2ccccc21` (stereo unspecified) stands 8.4%; under `O=C(NC1CCCCC1)c1ccc2nc3ccccc3nc2c1`, 81.5%.
Take `CC(=O)c1ccc(N2C(=O)c3ccc(-c4nc5ccccc5c(=O)o4)cc3C2=O)cc1`: the displacement was found to be 8.4%.
`CC(=O)N1CCN(c2ccc(NC(=O)c3ccc4c(c3)OCCO4)cc2)CC1`: the displacement was -1.2%.
Under `CCOc1ccc(C2Nc3ccccc3NC3=C2C(=O)CC(c2ccc(OC)cc2)C3)cc1` (stereo unspecified) stands -13.6%.
Turning to `CCC(C)NS(=O)(=O)c1ccc(Br)cc1` (stereo unspecified), the displacement is 17.4%.
Under `CCOc1cc(OCC)cc(C(=O)Nc2ccc(Br)cn2)c1` stands 6%.
Under `Cc1ccc(N(Cc2ccc(C(=O)Nc3cccnc3)cc2)S(C)(=O)=O)cc1C` stands 12.5%; under `COc1ccc(S(=O)(=O)N2CCN(Cc3ccc(SC)cc3)CC2)cc1`, -3.5%; under `COc1ccc(CCNC(=O)CSc2cccc3cccnc23)cc1OC`, 8.5%.
Take `Cc1cc(Cl)ccc1NC(=O)CSCc1cccc(Br)c1`: the displacement is -3.6%.
The result for `O=C(NCc1ccccc1)c1ccc(-c2ccc([N+](=O)[O-])cc2)o1` reads 1.6%; that for `Cc1ccc(NC(=O)CSc2nnnn2-c2ccccc2)c([N+](=O)[O-])c1`, 12.4%.
Under `Cc1cc(/C=C2\C(=O)NC(=O)N(c3cccc(Cl)c3)C2=O)c(C)n1-c1cccnc1` stands -3.4%; under `CC(C)CC(C1=C(O)CCCC1=O)C1=C(O)CCCC1=O`, -5.4%; under `CS(=O)(=O)N(Cc1ccc(C(=O)Nc2ccc(CC#N)cc2)cc1)c1ccccc1`, -7%.
Under `O=C(NCc1cccnc1)c1cccc(Cl)c1` stands -3%; under `Cc1ccnc(NC(=O)COc2ccc(C)cc2C)c1`, -0.6%.
As for `CCOc1ccc2nc(SCc3ccc(OC)cc3)sc2c1`, the displacement is -11%.
Under `CCN(CC)CCOc1c(C)cc(Cl)cc1Cl` stands 0.5%; under `CCOC(=O)C(CCCOc1ccc(F)cc1)C(=O)OCC`, 11.6%; under `COc1ccccc1N1CCN(C(=O)c2c(Cl)cccc2Cl)CC1`, 14%.
The result for `CC(C)(C)c1ccccc1OCCCCN1CCOCC1` reads 5.8%.
Under `Fc1ccc(-c2nnc(-c3ccc4c(c3)OCO4)o2)cc1` stands 24.1%; under `CCC(=O)CC(O)(c1ccccc1)C(F)(F)C(F)F` (stereo unspecified), -13.6%.
`CCCCOc1ccc(S(=O)(=O)N=Nc2c(O)n(C)c3ccccc23)cc1`: the displacement is 4.5%.
The result for `COC(=O)c1c(C)oc2cc(Br)c(OCc3ccc([N+](=O)[O-])cc3)cc12` reads 8.8%.
The result for `Cc1ccc(OCC(=O)O/N=C(\N)c2ccccn2)c(Br)c1` reads 5.2%.
The result for `CCOC(=O)C1C(=O)C=C(/C=C/c2ccccc2)CC1c1ccc(Cl)cc1` (stereo unspecified) reads -7.2%; that for `COc1ccc(-c2nc3cc(NC(=O)c4cccc([N+](=O)[O-])c4C)ccc3o2)cc1Br`, -2.1%; that for `CC(C)C12CN3CC(C(C)C)(CN(C1)C3c1cc(Br)ccc1O)C2=O` (stereo unspecified), 7.3%.
Turning to `COC(=O)c1sccc1NC(=O)c1cc(-c2cccs2)nc2ccccc12`, the displacement was found to be 60.4%.
Under `O=C(N/N=C\c1ccc(Cl)c(Cl)c1)c1cnccn1` stands -7.3%; under `CN1CCOCCOCCN(C)C1=O`, 10.6%.
Consider `CC1=NN(c2cccc(C(=O)O)c2)C(=O)/C1=C\c1ccc(C)cc1`, for which the displacement was -9.2%.
Under `CCC12c3ccccc3C(c3ccccc31)C1C(=O)N(c3cc(Cl)ccc3C)C(=O)C12` (stereo unspecified) stands 8.3%.
Under `O=c1[nH]c(N/N=C\c2c(Cl)cccc2Cl)nnc1-c1ccccc1` stands -19.5%.
The result for `CC(C)OCC(O)Cn1c2ccccc2c2ccccc21` (stereo unspecified) reads -4.5%; that for `COC(=O)c1cccc(S(=O)(=O)Nc2ccc(C(=O)O)cc2)c1`, -1.3%.
As for `CSc1ccccc1NC(=O)Cn1nc([N+](=O)[O-])cc1C`, the displacement came to 4.9%.
The result for `O=C(Nc1ccccc1[N+](=O)[O-])c1cc(-c2cccs2)nc2ccccc12` reads 8.4%; that for `CC(=O)/C(N=Nc1ccc2c(c1)OCCO2)=C(\C)O`, 15.9%; that for `O=C(c1cccs1)N1CCCCCC1`, 0.2%.
Under `COC(=O)c1ccc(/C=C/C(=O)c2cccc([N+](=O)[O-])c2)cc1` stands 9.2%; under `Cc1ccc(O)c(-c2cc(-c3ccc(C(F)(F)F)cc3)n[nH]2)c1`, -4.7%; under `CC(C)(C)NC(=O)C1C(C=C(Cl)Cl)C1(C)C` (stereo unspecified), 12%.
The result for `CSc1ccc(/C=N/NC(=O)COc2cccc(C)c2)cc1` reads 6.9%.
For `Cc1ccc(-c2csc(NC(=O)CCCC(=O)O)n2)cc1`, the displacement is -1.6%.
As for `Clc1ccc2nc(N/N=C/c3nc4ccccc4[nH]3)nc(-c3ccccc3)c2c1`, the displacement was 0.7%.
For the compound `COc1cc(OC)cc(C(=O)O/N=C2/C(=O)N(C)c3ccccc32)c1`, the displacement came to 11.6%.
Under `CCOC(=O)C1=C(O)/C(=C/N(C)C)N=C1C` stands 17.3%; under `Cc1cc2nc(-c3ccccc3)cc(-c3ccccc3)n2n1`, -21.9%.
Under `Nc1n[nH]c(N)c1N=Nc1ccc(Cl)cc1` stands -1%; under `COc1ccc(C(=O)Nc2ccc(NC(=O)c3ccco3)c(OC)c2)cc1`, -11.4%.
The result for `CC1=C(C(=O)Nc2ccccc2C)C(c2ccc(C(C)C)cc2)NC(=O)N1` (stereo unspecified) reads 14.9%.
For `CC(C)N(C(=O)c1ccc(C(=O)N(C(C)C)C(C)C)cc1)C(C)C`, the displacement was determined as 12.9%.
The result for `COc1cccc(NC(=O)c2cc(I)ccc2Cl)c1` reads -1.8%; that for `Clc1ccccc1OCCCCCN1CCCC1`, 5.8%.
Under `C=CCn1c2ccccc2c2nnc(SCC(=O)Nc3sc4c(c3C#N)CCCC4)nc21` stands -25.6%; under `Cc1ccc(OCC(=O)O/N=C(\N)c2cccnc2)c(C)c1`, 4.5%; under `COc1ccccc1C(=O)N1CCN(Cc2ccc([N+](=O)[O-])cc2)CC1`, 7.8%.
Turning to `CCCCc1c(C)nc(N/N=C(\C)c2cccc([N+](=O)[O-])c2)[nH]c1=O`, the displacement is -1.2%.
The result for `O=C(Cn1nc(-c2ccccc2)c2ccccc2c1=O)N1CCCCC1` reads 28%.
With `COc1ccc(CCN(C(=O)/C=C/C(=O)O)C2CC(=O)N(c3ccc(F)cc3)C2=O)cc1` (stereo unspecified), the displacement was -4.2%.
On to `O=c1[nH]c(SCc2nc3ccccc3[nH]2)nc2ccccc12`, for which the displacement was determined as 5.4%.
The result for `O=C(CSCC(=O)c1ccc(F)cc1)Nc1ccc2ccccc2c1` reads -17.7%; that for `CC(C)(C)c1cc(N2C(=O)C(=O)/C(=C(/O)c3ccc(Cl)cc3)C2c2cccc(F)c2)no1` (stereo unspecified), -4.3%; that for `O=C(Nc1cc(-c2nc3ccccc3o2)ccc1Cl)c1cccs1`, -1.6%.
As to `Cc1ccc(OCC(=O)N/N=C\c2ccc(OC(=O)c3cccs3)cc2)cc1`, the displacement is -0.3%.
The result for `O=C(O)c1cccc(N2Cc3ccccc3C2)c1` reads 11.3%.
The result for `CCCCOc1ccc(NC(=O)COc2ccccc2OC)cc1` reads -8%.
Under `O=C(NC(NC(=S)Nc1cccc(O)c1)C(Cl)(Cl)Cl)c1cccc([N+](=O)[O-])c1` (stereo unspecified) stands 4.9%; under `c1ccc(Nc2nc(-c3ccncc3)cs2)nc1`, -9.6%.
For `O=C1S/C(=C\c2ccc3c(c2)OCO3)C(=O)N1Cc1ccccc1`, the displacement was -6.3%.
The result for `CCOC(=O)c1[nH]nc2c1C(=O)N(c1ccc(OC)c(Br)c1)C2=O` reads -8.3%; that for `O=c1nc(/C=C/c2ccc(N3CCCC3)cc2)cc(C(F)(F)F)[nH]1`, -63.9%.
The result for `Cc1cccc2nc(-c3cccc([N+](=O)[O-])c3)oc(=O)c12` reads 26.3%; that for `N#C/C(=C(/O)c1cccc2ccccc12)c1nc2ccccc2[nH]1`, -6.8%.
The result for `CCCOC(=O)c1cccc(NC(=O)/C=C/c2ccc(Cl)cc2)c1` reads 17.6%; that for `COc1ccc(CN2CCN(C(=O)c3cccs3)CC2)cc1OC`, -5.8%; that for `CCOC(=O)c1cnc2cc(-c3ccc(Br)cc3)[nH]n2c1=O`, 11%.
For the compound `COc1cccc(-n2sc3c(c2=S)-c2cc(Cl)ccc2NC3(C)C)c1`, the displacement is 12.6%.
The result for `Cc1ccc(N2C(=O)NC(=O)/C(=C\c3ccc(O)c(Cl)c3)C2=O)cc1` reads 0.7%.
For `COc1ccccc1Cc1noc(-c2ccc([N+](=O)[O-])cc2)n1`, the displacement was -7.3%.
The result for `CC1=C(C(=O)OCCc2ccccc2)C(c2ccc(Cl)cc2)C2=C(CCCC2=O)N1` (stereo unspecified) reads -3.6%; that for `NC1=NC(=O)/C(=C\c2ccc(-c3ccc(C(=O)O)cc3)o2)S1`, -2.4%.
The result for `CC(=O)NS(=O)(=O)c1ccc(NC(=O)c2ccc(F)cc2)cc1` reads -9.6%; that for `O=[N+]([O-])c1ccc(C(O)CN2CCN(c3ccccc3)CC2)cc1` (stereo unspecified), -6.6%; that for `COc1ccccc1N1C(=O)/C(=C/c2c(Cl)cccc2Cl)SC1=S`, -4.4%.
The result for `O=C(Nc1ccc(Cl)c(Cl)c1)Nc1nnc(Cc2ccccc2F)s1` reads 5.6%.
In the case of `O=C(COc1ccc2ccccc2c1)N1CCN(C(=O)c2cccs2)CC1`, the displacement was -13.5%.

(Values after PubChem BioAssay AID1240 (Sanford-Burnham Center for Chemical Genomics, 2008).)
